In all, about 48,000 compounds went through this assay and about 120 (0.25%) were called active. Roughly 4% stayed inconclusive and do not appear here. The call rests on the fitted dose curve; in most records, active means well fitted activation curve with a large enough effect; inconclusive means small, poorly fitted or top-dose-only effect, or another doubt; inactive means no such curve, though single readings can be large or run the other way. The list shows a part of the results.
test: Primary qHTS for Identification of Small Molecule Activators of Huntingtin-Antisense Promoter Activity; conditions: HEK293 HTT-AS promoter firefly luciferase reporter (activity 0% = vehicle and -100% = no light), 24 h; series mostly up to 57.5 µM; activity change, positive = activation: at the top concentration; further: nearly all actives have a fitted effect of over 55% in size
Procedure, shortened: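 Firefly luciferase readout (Dual-Glo, 10 min RT) after 24 h, 37 °C compound exposure (final up to 57.5 uM) of HEK293 reporter cells cultured 24 h beforehand; PTC124 at 50 uM final as control inhibitor; activity scaled vehicle 0%, zero RLU -100%.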

Activity change, positive = activation, inactive:
Cc1ccc(C)c(-c2csc(-c3c(N)c(C(=O)c4ccc5c(c4)OCO5)n4ccccc34)n2)c1 -27.2%
COc1ccc(CCNC(=O)Cn2nc(C)n3c(cc4occc43)c2=O)cc1OC -14.5%
CCOC(=O)c1c(S(=O)(=O)N2CCCC(C(=O)N3CCN(c4ccc(F)cc4)CC3)C2)c(C)n(C)c1C (stereo unspecified) 0%
COc1ccc(CCNC(=O)Cn2ncc3c(C)n(Cc4ccccc4F)c(C)c3c2=O)cc1OC -9.15%
Cc1cccc(NC(=O)Cn2c(=O)oc3cc(S(=O)(=O)NCc4ccccc4)ccc32)c1 -31%
COc1ccc(Br)cc1C1CC(=O)Nc2c1c(C)nn2-c1nc(C)cc(C)n1 (stereo unspecified) -17.3%
Cc1ccc2nc(N(Cc3cccnc3)C(=O)C3CCCCC3)sc2c1 -21.3%
CCn1cc(C(=O)OCC(=O)Nc2cc(Cl)ccc2OC)c(=O)c2ccc(C)nc21 -5.24%
CCc1ccccc1NC(=O)Cn1c(=O)n(Cc2ccccc2)c(=O)c2c(C)c(C(=O)N(C)C)sc21 -12.1%
CCOc1ccc(NC(=O)Cn2c(=O)cc(C)c3c(C)nn(C)c32)cc1 -14.1%
Cc1csc2nc(-c3cccc(NS(C)(=O)=O)c3)cn12 -0.741%
Cc1ccccc1CN1c2ccccc2-c2nc(SCC(=O)c3ccc(Cl)cc3)ncc2S1(=O)=O 20.3%
COCCCNC(=O)CCCN1C(=O)CCn2nc(-c3cccn3C)cc21 6.57%
Cc1ccc(-c2nc(C)c(CCNC(=O)C(=O)Nc3cc(C)ccc3C)s2)cc1 1.37%
Cc1csc2nc(-c3ccc(NS(=O)(=O)c4cccc(F)c4)cc3)cn12 -24.2%
COc1cc(CNCCSc2nnnn2C)ccc1OCc1ccccc1C -0.468%
Cc1ccccc1CNC(=O)c1ccc(NC(=O)N2CCCCc3ccccc32)cc1 -20.2%
Cc1c(CN(C)C(=O)c2cc(-c3ccccc3)nc3ccc(Br)cc23)cnn1C -61.3%
CCCOc1ccc(C2=NC(c3ccncc3)=Nc3ccc(C)cc3N2)cc1 -16.6%
Cc1ccc(-c2n[nH]c3c2C(c2ccccc2Cl)N(c2ccc(C(=O)O)cc2)C3=O)cc1 (stereo unspecified) -33.6%
Cc1oc2ccc(NS(=O)(=O)c3ccc(F)cc3)cc2c1C(=O)O -8.67%
CSc1ncc(Cl)c(C(=O)Nc2c(C(=O)Nc3cccc(C)c3)oc3ccccc23)n1 -6.23%
Cc1ccc(S(=O)(=O)c2c(Nc3ccc(C)c(C)c3)sc(C(=O)c3ccc4c(c3)OCO4)c2N)cc1 -20.6%
Cc1ccccc1-c1noc(-c2ccc(N3CCC(C)CC3)c([N+](=O)[O-])c2)n1 -11.8%
CCc1ccc(CNC(=O)c2cnc(N3CCCCC3)c3ccccc23)cc1 -29.7%
COc1ccc(CCNC(=O)C(=O)Nc2ccc(C)c(C)c2)cc1 20.9%

Reference: PubChem BioAssay AID1508624 (National Center for Advancing Translational Sciences (NCATS), 2021)
